The other results are listed elsewhere or left out.

This is an account of results in the antibiotic and cytotoxicity screens of Wong et al. (2023).

For the first assay, the system named is HSkMC (human skeletal muscle cells). As to the kind of experiment: cytotoxicity call (relative viability < 0.9). As to conditions: 10 µM.
As for `Cc1ccccc1NC(=O)Nc1ccc(CC(=O)N(C)[C@@H](CC(C)C)C(=O)NCC[C@H](NC(=O)[C@@H]2CCCN2S(=O)(=O)c2cc(Cl)cc(Cl)c2)C(=O)O)cc1`, the cytotoxicity call was “inactive”.

Take `CC(C)(C)[S@](=O)N1Cc2cc(C(=O)NC3CCC3)nc(-c3cccc(-c4ccccc4F)c3)c2[C@@H]1CCO`: the cytotoxicity call is “inactive”.

In the case of `C[C@H]1CN([C@@H](C)CO)C(=O)Cc2cc(NS(=O)(=O)c3cccs3)ccc2O[C@@H]1CN(C)Cc1ccncc1`, the cytotoxicity call was “inactive”.

Turning to `COCC(=O)N(C)C[C@H]1Oc2cc(-c3ccc(C#N)cc3)ccc2S(=O)(=O)N([C@@H](C)CO)C[C@H]1C`, the cytotoxicity call is “inactive”.

For `C[C@@H]1CN([C@H](C)CO)C(=O)Cc2cc(NS(=O)(=O)c3cccs3)ccc2O[C@@H]1CN(C)S(C)(=O)=O`, the cytotoxicity call was “inactive”.

Take `Cc1noc(C)c1S(=O)(=O)Nc1ccc2c(c1)C(=O)N([C@H](C)CO)C[C@@H](C)[C@@H](CN(C)S(C)(=O)=O)OCCCC[C@H](C)O2`: the cytotoxicity call is “inactive”.

Consider `C[C@@H]1CCCCO[C@@H](CN(C)S(=O)(=O)c2cccs2)[C@@H](C)CN([C@@H](C)CO)C(=O)c2cc(NC(=O)Cc3ccccc3)ccc2O1`, for which the cytotoxicity call was “inactive”.

Consider `COC[C@@H]1CNN1C(=O)OC(C)(C)C`, for which the cytotoxicity call was “inactive”.

On to `O=C(NCCCN1CCOCC1)[C@@H]1[C@@H](CO)[C@@H]2Cn3c(cccc3=O)[C@H]1N2C(=O)C1CCCC1`, for which the cytotoxicity call is “inactive”.

For `C[C@@H]1CN([C@H](C)CO)C(=O)c2cc(NC(=O)Cc3cn(C)c4ccccc34)ccc2O[C@@H]1CN(C)CC1CCCCC1`, the cytotoxicity call was “inactive”.

Regarding `C[C@@H]1CCCCO[C@@H](CN(C)C(=O)C2CCCCC2)[C@H](C)CN([C@H](C)CO)C(=O)c2cc(NS(=O)(=O)c3ccccc3)ccc2O1`, the cytotoxicity call is “inactive”.

Turning to `CC(Cc1cccc(C(F)(F)F)c1)NCCOC(=O)c1ccccc1.Cl` (stereo not drawn), the cytotoxicity call was “inactive”.

On to `CC(C)[C@@H](CO)N1C(=O)[C@@H]2[C@H]3C(=O)OCC=C[C@H]3O[C@]23C=CCN(c2ccc4ccccc4c2)C(=O)[C@@H]13`, for which the cytotoxicity call is “inactive”.

As to `CN1CCc2nc(C(=O)NC3CC(C(=O)N(C)C)CCC3NC(=O)C(=O)Nc3ccc(Cl)cn3)sc2C1.Cc1ccc(S(=O)(=O)O)cc1.O` (stereo not drawn), the cytotoxicity call was “inactive”.

On to `COc1ccc(S(=O)(=O)N(C)C[C@H]2OCCCC[C@@H](C)Oc3ccc(NC(=O)Nc4ccc5c(c4)OCO5)cc3C(=O)N([C@@H](C)CO)C[C@H]2C)cc1`, for which the cytotoxicity call was “inactive”.

`Cc1ccc(S(=O)(=O)N(C)C[C@H]2OCCCC[C@@H](C)Oc3ccc(NC(=O)CCC(F)(F)F)cc3C(=O)N([C@@H](C)CO)C[C@@H]2C)cc1`: the cytotoxicity call is “inactive”.

In the case of `C[C@@H]1CN([C@@H](C)CO)C(=O)c2cc(NC(=O)C3CC3)ccc2O[C@@H]1CN(C)S(=O)(=O)c1cn(C)cn1`, the cytotoxicity call was “inactive”.

In the case of `CC(=O)NCCc1ccc(O)c(-c2c(O)c(O)c3c(c2O)C(=O)c2c(cc(O)c(C(=O)O)c2C(=O)O)C3=O)c1`, the cytotoxicity call is “inactive”.

Regarding `COCC#Cc1ccc2c(c1)O[C@@H](CN(C)S(=O)(=O)c1ccc(F)cc1)[C@H](C)CN([C@@H](C)CO)S2(=O)=O`, the cytotoxicity call was “inactive”.

Regarding `COc1cc2c(Oc3ccc(NC(=O)C4(C(=O)Nc5ccc(F)cc5)CC4)cc3F)ccnc2cc1OCCCN1CCOCC1`, the cytotoxicity call is “active”.

Regarding `COc1ccc(S(=O)(=O)N(C)C[C@@H]2Oc3ccc(NC(=O)Nc4c(C)noc4C)cc3C(=O)N([C@@H](C)CO)C[C@H]2C)cc1`, the cytotoxicity call is “inactive”.

Regarding `COc1ccccc1C#Cc1ccc2c(c1)O[C@H](CN(C)Cc1ccncc1)[C@@H](C)CN([C@@H](C)CO)S2(=O)=O`, the cytotoxicity call is “active”.

Take `COCC(=O)N1C[C@H](C)[C@@H](OC)CN(C)C(=O)c2cc(NC(=O)Nc3cccc(F)c3)ccc2OC[C@@H]1C`: the cytotoxicity call is “inactive”.

On to `O=C(C[C@@H]1CC[C@@H]2[C@H](COC[C@@H](O)CN2Cc2ccccc2F)O1)N[C@@H]1CCN(Cc2ccccc2)C1`, for which the cytotoxicity call was “inactive”.

In the case of `COc1cccc(NC(=O)N[C@H]2C=C[C@@H](CC(=O)N3CCOCC3)O[C@@H]2CO)c1`, the cytotoxicity call was “inactive”.

Turning to `C[C@@H]1CN([C@H](C)CO)C(=O)Cc2cc(NS(=O)(=O)c3ccccc3)ccc2O[C@@H]1CN(C)Cc1ccc(C(=O)O)cc1`, the cytotoxicity call was “inactive”.

For the compound `C[C@@H]1CN([C@H](C)CO)C(=O)c2cc(-c3ccncc3)cnc2O[C@H]1CN(C)S(=O)(=O)c1ccccc1`, the cytotoxicity call was “inactive”.

As for `C[C@H](CO)N1C[C@H](C)[C@H](CN(C)C(=O)CN2CCOCC2)Oc2ncc(/C=C/c3ccccc3)cc2C1=O`, the cytotoxicity call was “inactive”.

In the next assay the test system is HepG2. The assay can be described thus: cytotoxicity call (relative viability < 0.9). To be noted: 10 µM.
With `CN(C)CCCNC(=O)C[C@H]1CC[C@@H]2[C@H](COc3ccc(NC(=O)c4ccc5c(c4)OCO5)cc3C(=O)N2C)O1`, the cytotoxicity call was “inactive”.

Regarding `Cl.OC(CNCC(O)C1CCc2cc(F)ccc2O1)C1CCc2cc(F)ccc2O1` (stereo not drawn), the cytotoxicity call is “inactive”.

As for `CC1(C)CC(Nc2ccc(Nc3ccccc3)cc2)CC(C)(C)N1`, the cytotoxicity call is “inactive”.

With `O=C(C[C@@H]1C[C@@H]2c3cc(NC(=O)NC4CCCC4)ccc3O[C@@H]2[C@H](CO)O1)NCc1ccc(Oc2ccccc2)cc1`, the cytotoxicity call is “inactive”.

Consider `O=C(NC[C@H]1CCCO1)c1ccc[nH]1`, for which the cytotoxicity call was “inactive”.

Regarding `C[C@@H]1CCCCO[C@@H](CN(C)S(=O)(=O)c2ccccc2)[C@@H](C)CN([C@H](C)CO)C(=O)c2cc(NC(=O)NC3CCCCC3)ccc2O1`, the cytotoxicity call is “inactive”.

`Cc1cc(-c2ccc(N=Nc3ccc4c(S(=O)(=O)[O-])cc(S(=O)(=O)[O-])c(N)c4c3O)c(C)c2)ccc1N=Nc1ccc2c(S(=O)(=O)[O-])cc(S(=O)(=O)[O-])c(N)c2c1O.[Na+].[Na+].[Na+].[Na+]`: the cytotoxicity call was “active”.

For the compound `COCc1cc(C)nc2n[nH]c(N)c12`, the cytotoxicity call is “active”.

Turning to `C[C@@H]1CN([C@@H](C)CO)C(=O)c2cc(NC(=O)Nc3ccccc3)ccc2O[C@@H](C)CCCCO[C@@H]1CN(C)C(=O)Nc1cccc2ccccc12`, the cytotoxicity call is “inactive”.

Take `CCCNC(=O)N1C[C@]2(CCN(CC2)S(=O)(=O)c2ccc(cc2)OC)c2c(n(c3cc(ccc23)OC)C)[C@@H]1CO`: the cytotoxicity call is “active”.

Take `Cc1ccc(-c2cnc3c(c2)C(=O)N([C@H](C)CO)C[C@@H](C)[C@H](CN(C)C(=O)Cc2cccnc2)O3)cc1`: the cytotoxicity call is “inactive”.

`C[C@@H]1CN([C@H](C)CO)C(=O)c2cc(NC(=O)CCN3CCOCC3)ccc2O[C@@H]1CN(C)S(=O)(=O)c1ccc(Cl)cc1`: the cytotoxicity call is “inactive”.

For `Cc1ccccc1NC(=O)Nc1ccc(CC(=O)N(C)[C@@H](CC(C)C)C(=O)NCC[C@H](NC(=O)[C@@H]2CCCN2S(=O)(=O)c2cc(Cl)cc(Cl)c2)C(=O)O)cc1`, the cytotoxicity call is “inactive”.

For the compound `CC(C)(C)[S@](=O)N1Cc2cc(C(=O)NC3CCC3)nc(-c3cccc(-c4ccccc4F)c3)c2[C@@H]1CCO`, the cytotoxicity call is “inactive”.

`C[C@H]1CN([C@@H](C)CO)C(=O)Cc2cc(NS(=O)(=O)c3cccs3)ccc2O[C@@H]1CN(C)Cc1ccncc1`: the cytotoxicity call was “inactive”.

With `COCC(=O)N(C)C[C@H]1Oc2cc(-c3ccc(C#N)cc3)ccc2S(=O)(=O)N([C@@H](C)CO)C[C@H]1C`, the cytotoxicity call is “inactive”.

Regarding `C[C@@H]1CN([C@H](C)CO)C(=O)Cc2cc(NS(=O)(=O)c3cccs3)ccc2O[C@@H]1CN(C)S(C)(=O)=O`, the cytotoxicity call is “inactive”.

On to `Cc1noc(C)c1S(=O)(=O)Nc1ccc2c(c1)C(=O)N([C@H](C)CO)C[C@@H](C)[C@@H](CN(C)S(C)(=O)=O)OCCCC[C@H](C)O2`, for which the cytotoxicity call was “inactive”.

As to `C[C@@H]1CCCCO[C@@H](CN(C)S(=O)(=O)c2cccs2)[C@@H](C)CN([C@@H](C)CO)C(=O)c2cc(NC(=O)Cc3ccccc3)ccc2O1`, the cytotoxicity call is “inactive”.

Take `COC[C@@H]1CNN1C(=O)OC(C)(C)C`: the cytotoxicity call was “inactive”.

For the compound `O=C(NCCCN1CCOCC1)[C@@H]1[C@@H](CO)[C@@H]2Cn3c(cccc3=O)[C@H]1N2C(=O)C1CCCC1`, the cytotoxicity call is “inactive”.

For the compound `C[C@@H]1CN([C@H](C)CO)C(=O)c2cc(NC(=O)Cc3cn(C)c4ccccc34)ccc2O[C@@H]1CN(C)CC1CCCCC1`, the cytotoxicity call was “inactive”.

Consider `C[C@@H]1CCCCO[C@@H](CN(C)C(=O)C2CCCCC2)[C@H](C)CN([C@H](C)CO)C(=O)c2cc(NS(=O)(=O)c3ccccc3)ccc2O1`, for which the cytotoxicity call is “inactive”.

As for `CC(Cc1cccc(C(F)(F)F)c1)NCCOC(=O)c1ccccc1.Cl` (stereo not drawn), the cytotoxicity call was “inactive”.

In the case of `CC(C)[C@@H](CO)N1C(=O)[C@@H]2[C@H]3C(=O)OCC=C[C@H]3O[C@]23C=CCN(c2ccc4ccccc4c2)C(=O)[C@@H]13`, the cytotoxicity call was “inactive”.

For `CN1CCc2nc(C(=O)NC3CC(C(=O)N(C)C)CCC3NC(=O)C(=O)Nc3ccc(Cl)cn3)sc2C1.Cc1ccc(S(=O)(=O)O)cc1.O` (stereo not drawn), the cytotoxicity call was “inactive”.

`COc1ccc(S(=O)(=O)N(C)C[C@H]2OCCCC[C@@H](C)Oc3ccc(NC(=O)Nc4ccc5c(c4)OCO5)cc3C(=O)N([C@@H](C)CO)C[C@H]2C)cc1`: the cytotoxicity call was “inactive”.

As for `Cc1ccc(S(=O)(=O)N(C)C[C@H]2OCCCC[C@@H](C)Oc3ccc(NC(=O)CCC(F)(F)F)cc3C(=O)N([C@@H](C)CO)C[C@@H]2C)cc1`, the cytotoxicity call is “inactive”.

With `C[C@@H]1CN([C@@H](C)CO)C(=O)c2cc(NC(=O)C3CC3)ccc2O[C@@H]1CN(C)S(=O)(=O)c1cn(C)cn1`, the cytotoxicity call was “inactive”.

For `CC(=O)NCCc1ccc(O)c(-c2c(O)c(O)c3c(c2O)C(=O)c2c(cc(O)c(C(=O)O)c2C(=O)O)C3=O)c1`, the cytotoxicity call was “inactive”.

`COCC#Cc1ccc2c(c1)O[C@@H](CN(C)S(=O)(=O)c1ccc(F)cc1)[C@H](C)CN([C@@H](C)CO)S2(=O)=O`: the cytotoxicity call was “inactive”.

Turning to `COc1cc2c(Oc3ccc(NC(=O)C4(C(=O)Nc5ccc(F)cc5)CC4)cc3F)ccnc2cc1OCCCN1CCOCC1`, the cytotoxicity call is “active”.

Turning to `COc1ccc(S(=O)(=O)N(C)C[C@@H]2Oc3ccc(NC(=O)Nc4c(C)noc4C)cc3C(=O)N([C@@H](C)CO)C[C@H]2C)cc1`, the cytotoxicity call is “inactive”.

In the case of `COc1ccccc1C#Cc1ccc2c(c1)O[C@H](CN(C)Cc1ccncc1)[C@@H](C)CN([C@@H](C)CO)S2(=O)=O`, the cytotoxicity call is “active”.

In the case of `COCC(=O)N1C[C@H](C)[C@@H](OC)CN(C)C(=O)c2cc(NC(=O)Nc3cccc(F)c3)ccc2OC[C@@H]1C`, the cytotoxicity call is “inactive”.
